Results are given in words; binding and its absence hold for the method and conditions named. Binding seen in cells or lysates may run through a third protein.
Target: CBD (chitin-binding domain)-tagged STAT3 (UniProt P40763)
Experiment: co-IP

Amino acid sequences for entries named in this document (tags omitted).
UniProt P40763: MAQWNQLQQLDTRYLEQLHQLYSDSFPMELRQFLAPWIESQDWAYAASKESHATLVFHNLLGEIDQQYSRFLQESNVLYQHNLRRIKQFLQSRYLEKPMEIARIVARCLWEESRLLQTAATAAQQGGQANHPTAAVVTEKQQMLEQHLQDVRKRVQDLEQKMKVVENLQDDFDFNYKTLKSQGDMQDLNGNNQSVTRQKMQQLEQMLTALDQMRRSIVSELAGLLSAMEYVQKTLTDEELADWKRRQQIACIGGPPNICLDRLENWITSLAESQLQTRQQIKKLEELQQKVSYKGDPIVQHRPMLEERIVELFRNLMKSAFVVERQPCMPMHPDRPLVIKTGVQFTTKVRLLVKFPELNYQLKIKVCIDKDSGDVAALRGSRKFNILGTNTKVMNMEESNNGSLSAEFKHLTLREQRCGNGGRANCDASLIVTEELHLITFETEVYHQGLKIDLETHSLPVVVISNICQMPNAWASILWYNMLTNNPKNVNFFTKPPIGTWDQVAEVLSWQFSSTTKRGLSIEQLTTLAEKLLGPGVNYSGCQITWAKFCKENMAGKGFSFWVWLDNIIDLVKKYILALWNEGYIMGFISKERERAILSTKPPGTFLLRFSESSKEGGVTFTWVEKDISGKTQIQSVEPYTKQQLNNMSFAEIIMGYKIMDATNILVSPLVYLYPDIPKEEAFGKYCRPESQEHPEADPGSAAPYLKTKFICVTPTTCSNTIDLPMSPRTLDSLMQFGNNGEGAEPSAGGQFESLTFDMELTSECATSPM

Row | Substance | binding
1 | Flag-tagged vIRF-1 deletion variant Δ2 (deleted of residues 23-47) (from UniProt F5HF68 1-449) | no binding
2 | Flag-tagged vIRF-1 deletion variant Δ3 (deleted of residues 48-72) (from UniProt F5HF68 1-449) | no binding
